Source: the RNAGym collection of RNA variant scans (doi:10.7554/elife.90254)
Read counts are not given, so values of variants with three or more changes are uncertain.

B1: OR4K15 (parent)
chain: GUUAACGGUCAUAGGCCAUGGAAACUAGGAGCACCAUUUCGCUGCCAGUGAAGAAAUGAACAAAGAAAAUCUGGGCCAGGCAGGCAUCAAAAGAAAUAGUCUUGCGCUCAACCAGAAAGUCUGUAAUCAUUUUAAGGGUA

Variants of: B1
Experiment: self-cleavage, relative activity (ratio to wild type); higher = more cleavage; in vitro, sequencing; the parent is a self-cleaving ribozyme

Variant | self-cleavage
A51U U70A A94G | 1.05
A5G U37C A55G | 0.6
A18G U43C A78G A98G | 0.17
A23C U49G A51G A56G | 0.65
A67U A90G U120C U130C | 0.3
A68G A91G A116G | 0.39
G44C A56G U100A A117G | 1.16
A47U G74U A94G U100C | 0.23
A33G A62C A66U G79U A96G | 0.05
U43C A86U U108C | 0.02
A30G U49A A92U U102C G106A | 0.03
A86G A91G A134G | 0.05
A55G A64G A116G | 0.68
U70C A114U A117G U120C | 0.01
U19C A52G A135G | 0.76
A5G U9C A22G A47G A94C U130C | 0.74
A66G U72C U131C A135G | 0.34
A36G A86G A134U | 1.71
A96G C105U U120C | 0.04
U26C A64G A135G | 1.42
A86G A89U A114U A116C U124C U130C A140G | 0
U2C A11G G44A A96G U100C | 1.48
A33G A62G A67G A95G A135G | 0.35
A82G A94G U103C U127C | 1.28

Variant | self-cleavage
U9C A36G A92C A118G | 1.84
A47U U49C A67G A69G A94G | 0.72
U39C A55G A59G U100C | 1.62
U3C G31U U38C A62G A69U C107U | 0.08
U19C A24C A55G | 2
A23G U102C U131C | 1.29
A24U C42U A51G A54G U108C | 0.05
A111U A114G U122C | 0.02
U49A A62U A126G | 0.84
A22G A23G U26C | 0.74
A60G A64U A67G A94G U133C | 0.81
A27C A78U A91G U100C A111G U120C | 0.01
U19C A91U A98G | 0.65
U72C A110G U130C | 0.02
A5G U38C A95G U132C | 1.16
G41A U87C U122A | 0.65
U43A U49A U70C | 1.09
A23G U43C A55G A96U U108C A111C | 0.02
A18U A60G U100C | 1.94
A18G A22G A66U U132C | 0.49
A24G A67G U131C U139C | 1.42
U9G A33G A54U A135G | 0.68
U9C U26C U37C A47U | 0.78
A18G C32A U122C C128U | 0

Variant | self-cleavage
U43A A56G A78G C85U | 0
U37C A54G A82G | 1.23
A22G A47G G75A | 0.18
A62G A78C A89G A116G U132A | 0.05
A18G A62U A96G C101A | 0.16
A22G A33C A51G A60G U72A | 0.46
U100C U124C A140U | 1.6
U9A U57C A59G A89G A117G U131C | 0.92
A30G A54U A66G U72C C113U | 0.02
U38C A96G A135G | 2.04
A11G U120C U132C | 0.6
A110G A129G U131C A134G | 0.05
A36G U39A U49C G93U U130C | 0.79
U38C A62G U72A A111G | 0.03
A23G C35U U38C | 1.02
U108C A111G A114G | 0
A59G A62G U132A | 1.13
A33G U37A A51G A54G A59G A64G U103A A114U | 0.09
A27G U38G U43C A52G U108C A140G | 0.01
A27U U57C A89U | 1.7
A22G A66U A67G G84U | 0.34
A5G A11G U57C U102C | 1.21
A18G U43C A64G A78G | 0.16
U19C G79U U127C | 0.06

Variant | self-cleavage
U19C U39A U87C A95G | 1.83
U9C A56G U108G | 0.07
A18G A64G A86G A89G | 0.94
G15A A30G U39C C81U C88U A118U | 0.26
A54G A56G A91G U100C A134G | 0
A66U A78G U103C A114U A134G U139C | 0
U39A A89G A95G | 2.68
U38C A62G A69G A94G U97A | 0.7
U37C U57A A62G G119A U122C | 0.73
A68G A78U A90C A111U | 0.01
U2C A23G A52G C105U | 0.07
A11G U70C C88U | 0.24
A96G G106A A114G | 0.01
A54G A89G A96G U108A A110G | 0.03
A4G A18G U49C A69C A118G | 0.96
A11G U100C A126G | 1.41
U19A A22G U108A | 0.06
A36G U49C A68G A86G A89G A117G | 1.36
G21A U38A A56U A118C | 0.7
A62G A67G A94U A110U U131C | 0.83
U19G A23G U38A U87A A118G U133G | 1.78
U57G A69U U100A G106U | 0.01
A23G U49A A78U A92U U132C U133C | 0.28
U39C A64U A82U A91G | 0.17

Variant | self-cleavage
A27U U38C U127A | 2.83
A89G A116G A126G | 0.34
U39C A62G A117G U127C | 1.33
U12A U38C A64U A86U A135G | 1.71
A90G A111G A118U | 0
U3C A5G U12C C34U U49C A110U C112U U130A U131C | 0.01
U26C A51G U70C A82G A114U | 0.04
U26C U38C A64G U72C A89G | 0.31
U2A U72C A111G A117G | 0.07
A78G A116G A129G | 0.07
A52G A66G A69U U87A A98G A118G | 0.5
A111C A118G U122C | 0.01
G20A A60G A91G A117G | 1.02
A5U U19C A24G U38C C61A A126U | 0.92
C6U A90G A94G U124C | 1.24
A13U A22G A47G A91G U100G U102C A126G | 1.4
A33U A47U U132C | 1.24
U9C G15C U39C A63U | 1.77
A33U U37C A56G C61U A95G U131A | 1.71
A11G U72C U100A | 0.11
G21U A23U A33U A69G U102C A126G | 1.75
A23G U97C A116U A126G | 0.14
A24G U72C A96G | 0.16
U12C A33G A91G | 0.55

Variant | self-cleavage
U97A U122C U139G | 1.31
A23G A51C A66G | 1.31
A5G U9C A30G A67G U72C A91U | 0.38
A33G A62G U120A | 1.22
U2C U9C U39C U131A | 0.68
A18U U57C A126G | 0.38
U19C A54G A68G | 1.16
A24U A62U A89G | 1.25
A66G A90G U108A A114U | 0
U72C U102C A118G U127C | 0.08
U43A A62G A66G A118G | 0.69
A47G A98U A134G | 1.98
A33G A69G U72C | 0.15
A91G A95G U97A | 0.75
U39C U72A A117G | 0.16
A30G A64G A67G | 0.72
A11U A91G A125G | 0.69
A24G A68G A91G U124C A134G | 0.39
A27G U38A A126G U127C | 1.03
A66G A91C A117G | 1.49
A23G A24G A96G A118U | 1.06
A5G A23G U72C G73U A129G | 0.17
U43G A56G A117G U122C | 0.4
A11G A62G U72A C85A A111G U120C | 0.03

Variant | self-cleavage
A4U A5G C46U A62U | 0.85
U49C A52U A60U A89G A91G A95U | 1.15
A47G A117G U120C | 0.24
U57C A64G A89G A96G A111G | 0.02
A22G U26C A118G | 0.44
U39A A55G U139C | 1.24
U19C A52G A66G A67G A86G A111U U139A | 0.04
A89U G106A A110G | 0.01
U19A U39C G106A U132C | 0.01
U108C A111U U124C | 0
A55U U103C A111G | 0.01
U37C A68U A110G U124A | 0.03
A67G A116U U124C | 0.19
U108A A111G A117G | 0
U37C A95G A96G | 0.96
A82U A90G A95G | 0.29
U43C A59G A60U A63G | 2.29
U49C A68G A116G | 0.52
A18G A27U C34U U102C C105A | 0.03
U19A A55G A89U G104U A118G | 0.01
A23U U72A A129G | 0.12
A18C G75A A89G A90G | 0.16
A68G A110U U127C | 0.56
